This note sets out measurements from patent US20060063228A1 (Pfizer, published 2006).

In the assay the target is T1, IL-13Rα2 on A375 human melanoma cells (human, UniProt Q14627 27-380).
T1 construct: whole, on cells
T1 sequence (looked up): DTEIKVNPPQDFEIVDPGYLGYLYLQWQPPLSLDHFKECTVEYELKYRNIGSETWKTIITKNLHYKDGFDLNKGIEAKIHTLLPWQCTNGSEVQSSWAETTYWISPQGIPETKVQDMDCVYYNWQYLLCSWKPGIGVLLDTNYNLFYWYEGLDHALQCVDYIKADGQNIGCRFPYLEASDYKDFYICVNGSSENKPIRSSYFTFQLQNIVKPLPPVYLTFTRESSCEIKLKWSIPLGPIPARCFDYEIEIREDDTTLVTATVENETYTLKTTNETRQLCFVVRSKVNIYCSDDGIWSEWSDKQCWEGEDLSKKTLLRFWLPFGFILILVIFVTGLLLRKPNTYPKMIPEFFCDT
Description: flow cytometry; IL-13 captured on A375 cells that express IL-13Rα2, detected with biotinylated h13.2v2. An excerpt: The cell signaling form of the IL-13 receptor, which includes the IL-13Rα1 and IL-4Rα polypeptides, is found on the surface of cell types that respond to the cytokine. IL-13Rα2 is not typically expressed on the surface of IL-13-responsive cells, but has been reported on tumors of the brain, head, and neck (Kawakami et al. (2003) Clin. Cancer Res. 9:6381-8; Mintz et al. (2002) Neoplasia 4:388-99; Liu et al. (2000) Cancer Immunol. Immunother. 49:319-24). IL-13Rα2 expression may also be induced on IFNγ-treated primary human monocytes (Daines et al. (2002) J. Biol. Chem. 277:10387-93), or TNFα- or IL-13-treated primary human fibroblasts (Yoshikawa et al. (2003) Biochem. Biophys. Res. Commun. 312:1248-55). This receptor is not competent to mediate signaling responses to IL-13 (Kawakami et al. (2001) Blood 97:2673-9), but instead appears to act as a decoy receptor, competing for productive IL-13 interactions with IL-13Rα1 (Feng et al. (1998) Lab. Invest. 78:591-602). IL-13Rα2 has a high affinity for IL-13 (Andrews et al. (2002) J. Biol. Chem. 277:46073-8), and appears to interact primarily with the C-terminal region of the cytokine (Madhankumar et al. (2002) J. Biol. Chem. 277:43194-205), which is not predicted to include the h13.2v2 binding site. Therefore, it was examined whether h13.2v2 could interact with IL-13 captured by IL-13Rα2 on the cell surface. […]
A general note: In flow cytometry, cells or beads pass a laser one at a time.

B1: recombinant human IL-13 (ligand)
chain: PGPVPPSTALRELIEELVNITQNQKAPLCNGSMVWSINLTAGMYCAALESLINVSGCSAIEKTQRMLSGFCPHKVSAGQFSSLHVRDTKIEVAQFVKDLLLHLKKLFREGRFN
notes: also called biotinylated IL-13; rec human IL-13
For B1, the binding result is on record as “binds”.
